# Reference: PubChem BioAssay (NCATS)
# This list was built around the results that the source calls inconclusive (neither active nor inactive); the mix of calls is not that of the screen. For part of these data: Potencies of inconclusive entries are left out as doubtful fits. The source made the active and inactive calls. Calls come from the whole dose curve; as a rule, active = well fitted curve in the direction sought with a large enough effect; inconclusive = small, poorly fitted or top-dose-only effect, or another doubt; inactive = no such curve, though single readings can be large; an effect the other way counts as inactive or inconclusive.
# Legend:
# [1] = test system: Zika virus NS2B-NS3 protease (linked construct); test: Primary screen NINDS Rhodamine qHTS for Zika virus inhibitors (AID 1347160); note: nearly all actives have a fitted effect of over 55% in size
# Procedure, shortened: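 Aprotinin served as in-plate control. Conditions: 25 nM linked NS2B-NS3, pH 8.0 Tris buffer, titrated compounds, 15 min preincubation and 15 min reaction with 1.5 microM Rhod110 substrate at room temperature.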
# [2] = P-glycoprotein substrates identified in KB-3-1 adenocarcinoma cell line, qHTS therapeutic library screen (AID 1346986); details: KB-3-1 parental cells viability, CellTiter-Glo, 72 h; series mostly up to 44.5 µM;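 note: potency is the fitted concentration of half-maximal effect; potency is for cytotoxicity meaning loss of cell viability; nearly all actives have a fitted effect of over 60% in size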
# Procedure, shortened: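 Using luminescence to quantify ATP, parental and P-gp-overexpressing KB cells were compared after 72 h compound titration. KB-8-5-11 was also run with the P-gp inhibitor tariquidar.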
# [3] = qHTS assay to identify inhibitors of the type 1 interferon - major histocompatibility complex class I in skeletal muscle: Counter screen cell viability and HiBit confirmation (AID 1347412); details: iHSKM muscle cells + IFN-b, HiBiT or CellTiter-Glo, 24 h; Viability; note: potency is the fitted concentration of half-maximal effect; nearly all actives have a fitted effect of over 60% in size
# Procedure, shortened: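 Human myoblast knock-in line, 4.0 ng/ml IFN-beta stimulation, 24 h compound treatment. Endpoints: HiBiT lytic luminescence (HLA-B level) and CellTiter Glo (ATP). Dosing 12 concentrations, 3-fold steps, 46 uM highest final.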
# [4] = qHTS of pediatric cancer cell lines to identify multiple opportunities for drug repurposing: Primary screen for BT-37 cells (AID 1347094); note: potency is the fitted concentration of half-maximal effect
# Procedure, shortened: (§1)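 Plated cells (500-1,000 per well, growth media) were allowed to settle for 5 hours, treated with compound dilutions for 48 hours, then lysed with CellTiter-Glo for 15 min at room temperature before luminescence reading.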
# [5] = qHTS of pediatric cancer cell lines to identify multiple opportunities for drug repurposing: Primary screen for Saos-2 cells (AID 1347097); details: Saos-2 viability, CellTiter-Glo ATP luminescence, 48 h; series mostly up to 46 µM; note: potency is the fitted concentration of half-maximal effect; nearly all actives have a fitted effect of over 40% in size
# Procedure, shortened: as §1
# [6] = molecular target: Calcium and integrin-binding protein 1 (Homo sapiens) (UniProt Q99828); test: Primary qHTS for Identification of Calcium Integrin Binding Protein 1 (CIB1) Competitor (AID 1508620); note: potency is the fitted concentration of half-maximal effect
# Procedure, shortened: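 Fluorescence polarization competition: CIB1-GST (1 uM final) preincubated with compound 15 min at room temperature, then FITC-labeled alphaIIb peptide (100 nM final) added for another 15 min. Polarization read at Ex 480/Em 540.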
# Tags give direction and shape of the fitted curve.
# UniProt Q99828, sequence (Q99828 whole entry, looked up): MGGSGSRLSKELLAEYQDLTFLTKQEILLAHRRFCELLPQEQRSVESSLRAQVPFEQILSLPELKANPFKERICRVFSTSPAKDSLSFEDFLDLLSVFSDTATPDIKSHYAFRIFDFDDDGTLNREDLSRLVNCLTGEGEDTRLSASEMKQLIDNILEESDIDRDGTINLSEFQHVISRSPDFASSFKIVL
smiles,measurement,setting,value
c1cc(NC2CCNCC2)nc(-c2cnc3ccccn23)c1,Potency,[1],inactive
COc1cccc(Nc2ncnn3ccc(CN4CC[C@@H](N)[C@H](O)C4)c23)c1,Potency,[2],"inconclusive [inhibitor, partial curve]"
same,Potency,[1],inactive
same,Potency,[3],"inconclusive [cytotoxic, full curve]"
CN(C/C=C/c1ccccc1)Cc1cccc2ccccc12,Potency,[4],"inconclusive [cytotoxic, partial curve, poor fit]"
same,Potency,[5],active: 23.7 µM
Cc1ccc(-c2c(C(=O)CCl)n(CCCO)c3ncnc(N)c23)cc1,Potency,[6],"inconclusive [inhibitor, full curve, poor fit]"
Cc1cnc(Nc2ccc(F)cc2Cl)nc1-c1c[nH]c(C(=O)NC(CO)c2cccc(Cl)c2)c1 (centres undefined),Potency,[2],"inconclusive [inhibitor, full curve]"
COC(C(=O)N1Cc2[nH]nc(NC(=O)c3ccc(N4CCN(C)CC4)cc3)c2C1)c1ccccc1 (centres undefined),Potency,[2],active: 0.517 µM
